Results on one substance are retold here after FireProtDB (doi:10.1021/bi00197a037).

The conditions of the data set: Homo sapiens, Thermal, DSC, glycine-HCl 10 mM, reversible: yes.

For the substance “Interleukin-1 beta wild type (sequence not shown)”, the Tm came out at 37 °C (pH 2); 41 °C (pH 2.2); 44 °C (pH 2.38); 49 °C (pH 2.5); 53 °C (pH 3). For the same substance, the “heat capacity change of unfolding” value runs as follows: (pH 2) 1.89 kcal/mol/K; (pH 2.2) 1.89 kcal/mol/K; (pH 2.38) 1.89 kcal/mol/K; (pH 2.5) 1.89 kcal/mol/K; (pH 3) 1.89 kcal/mol/K. Moreover, the “unfolding enthalpy (calorimetric)” value is, setting by setting: (pH 2) 54.3 kcal/mol; (pH 2.2) 63.6 kcal/mol; (pH 2.38) 59.1 kcal/mol; (pH 2.5) 78.9 kcal/mol; (pH 3) 84 kcal/mol. The “unfolding enthalpy (van 't Hoff)” value reads like this: (pH 2) 57.9 kcal/mol; (pH 2.2) 66.3 kcal/mol; (pH 2.38) 56.2 kcal/mol; (pH 2.5) 78.2 kcal/mol; (pH 3) 88.3 kcal/mol.

As usually defined, the Tm is the temperature at which the thermal transition is half complete.
